PubChem BioAssay AID624202 (National Center for Advancing Translational Sciences (NCATS), 2012)
Among all 380,000 compounds or so, about 4,000 (1.1%) were called active. Inconclusive results, whose numbers are uncertain, are shown with a selection of clear calls. The call rests on the fitted dose curve; in most records, active means well fitted activation curve with a large enough effect; inconclusive means small, poorly fitted or top-dose-only effect; inactive means no such curve, though single readings can be large or run the other way. A potency beside an inconclusive call is a rough fit, not a confirmed value.

Experiment: qHTS Assay to Identify Small Molecule Activators of BRCA1 Expression; further: nearly all actives have a fitted effect of over 80% in size
Conditions: MCF7-BRCA1-FFLuc reporter, luminescence, 48 h; activation: at 46.1 µM (top of the series), scaled: vehicle 0%, 10 µM genistein 100% unless noted
Procedure, shortened: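 Cells: MCF7-BRCA1-FFLuc, 2000/well. Exposure: 48 h, 37 °C, 5% CO2. Read: luminescence, 15 min post-substrate. Controls: genistein 10 microM (maximal activation), DMSO (neutral).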
Potency means the concentration at half of the fitted maximal effect; tags describe the fitted curve by direction and shape.

Structure (SMILES)	Potency	activation
CCC1CCCCN1C(=O)CSc1nnc(-c2cccc(Cl)c2)o1 (configuration not stated)	active: 10 µM	
CC(C)(C)C(=O)N1CCN(S(=O)(=O)c2ccc3c(c2)OCCCO3)CC1	inactive	
COc1ccc(/C=N/N=C(\N)c2nonc2N)cc1	inconclusive: 0.562 µM [activator, full curve, poor fit]	
Cc1cccc(C(=O)NC(=S)N2CCc3ccccc3C2)c1	inactive	
COc1ccc(-c2noc(-c3ccc(Cl)cc3[N+](=O)[O-])n2)cc1OC	inconclusive: 17.8 µM [activator, single point]	
Cc1sc(NC(=O)c2ccccc2F)c(CN2CCCCC2C)c1C (configuration not stated)	inconclusive: 0.501 µM [activator, full curve, poor fit]	
CCN(Cc1ccccc1)S(=O)(=O)c1csc(C(N)=O)c1	inactive	
Cc1ccc2nc(N3CCN(C(=O)c4ccco4)CC3)sc2c1	inconclusive: 3.98 µM [activator, full curve, poor fit]	
O=C(NC(=S)N1CCCC(C(F)(F)F)C1)c1ccc(F)cc1 (configuration not stated)	inactive	
CCc1nnc(NC(=O)C2CCCN2S(=O)(=O)c2ccccc2)s1 (configuration not stated)	inactive	
COc1cc(C(C)=O)ccc1OCCCN1CCC(Cc2ccccc2)CC1	inactive	
CC(=O)c1sc(NC(=O)c2ccc(F)cc2)nc1-c1ccccc1	inconclusive: 3.98 µM [activator, full curve, poor fit]	
N#Cc1ccccc1NC(=O)COc1ccc2c(c1)OCO2	inconclusive: 2.82 µM [activator, full curve, poor fit]	
O=C(Nc1nc2ccccc2[nH]1)c1ccc([N+](=O)[O-])cc1	inconclusive: 0.631 µM [activator, full curve, poor fit]	
CN(Cc1ccccc1)C(=O)CN1CCN(S(=O)(=O)c2ccc(Cl)c(Cl)c2)CC1	inactive	
Cc1ccc2nc(-c3ccc(NC(=O)CN4CCN(c5ccccn5)CC4)cc3)sc2c1		inconclusive: 117% [activator]
Cc1ccc(NC(=O)c2cnn(-c3ccccc3)c2C)cc1C		inconclusive: -88.2% [activator]
CSc1ccccc1OCc1cc(C(=O)N(C)Cc2ccc(C)o2)no1	active: 11.2 µM	
Nc1c(-c2ccccc2)cnn1-c1cccc(Cl)c1	inconclusive: 2.24 µM [activator, full curve, poor fit]	
Cc1ccc(NC(=O)C2CCCCC2C(=O)O)cc1C (configuration not stated)	inactive	
CSC1=C(C#N)C(c2ccccc2C)C(C#N)=C(N)N1 (configuration not stated)	inactive	
COc1ccc2cc3c(nc2c1)OCC3	inconclusive: 11.2 µM [activator, partial curve, poor fit]	
Cc1nn(-c2ccccc2)c(Cl)c1/C=N/NC(=O)c1ccn[nH]1	inconclusive: 1 µM [activator, full curve, poor fit]	
O=C(Nc1ccccc1)OCCc1ccccc1	inconclusive: 3.55 µM [activator, partial curve, poor fit]	
Cc1ccc(Nc2cc(C)c3c(O)cccc3n2)cc1C	active: 5.62 µM	
Cc1cnc(NC(=O)CC2CCCC2)s1	inconclusive: 10 µM [activator, partial curve, poor fit]	

Structure (SMILES)	Potency	activation
CCCC1(c2ccccc2)NC(=O)N(CC(=O)c2[nH]c(C)c(C(=O)OCC)c2C)C1=O (configuration not stated)	inactive	
Cc1occc1C(=O)Nc1sccc1C(N)=O	inconclusive: 12.6 µM [activator, partial curve, poor fit]	
O=C(O)c1ccccc1Nc1ccc(OC(F)F)cc1	inconclusive: 10 µM [activator, partial curve, poor fit]	
COc1ccc(C(=O)c2ccc(OC)cc2O)c(O)c1	active: 10 µM	
C[C@H](CO)N1C[C@H](C)[C@H](CN(C)C(=O)Cc2ccccc2)OCc2cnnn2CCCC1=O	inconclusive: 35.5 µM [activator, single point]	
CN(C)c1ccc(CNC(=O)CCNS(=O)(=O)c2cc(Br)cnc2N)cc1	inactive	
COc1cc(-c2nnc(COC(=O)c3nn(CC(C)C)c(=O)c4ccccc34)o2)cc(OC)c1OC	inactive	
Clc1cccc(-c2nc3nc4ccccc4nc3n2Cc2ccccc2)c1	inactive	
O=C(Nc1ccc2oc(-c3ccccc3)nc2c1)c1cccnc1	active: 2.82 µM	
O=C(c1ccccc1)c1coc(-c2ccccc2)c1	inconclusive: 1.41 µM [activator, full curve, poor fit]	
COc1cc2c(cc1OC)/C(=C/C(=O)N1CCOCC1)NC(C)(C)C2	inactive	
O=C(Nc1ccc(C(=O)N2CCCCC2)cc1)c1cccs1	inconclusive: 31.6 µM [activator, single point]	
O=C(NCc1ccccc1)c1csc(-c2cccnc2)n1	inactive	
Nc1c(C(=O)N2CCCC2)sc2nc(-c3ccccc3)ccc12	active: 5.62 µM	
COc1ccc(N=C2SC(CC(=O)Nc3ccccc3F)C(=O)N2Cc2ccco2)cc1 (configuration not stated)	inactive	
Nc1ccc2c(c1)Cc1c(F)cccc1-2	inconclusive: 1.26 µM [activator, full curve, poor fit]	
O=C(NC(=S)Nc1cc([N+](=O)[O-])ccc1O)c1ccc2c(c1)OCO2		inconclusive: -63.3% [activator]
Cc1nn(-c2ccc([N+](=O)[O-])cc2)c(N)c1-c1ccccc1	inconclusive: 1.41 µM [activator, full curve, poor fit]	
Cc1ccc(Cl)cc1N1CCN(C(=O)c2ccc3c(c2)N(Cc2ccccc2F)C(=O)c2ccccc2S3=O)CC1 (configuration not stated)	inactive	
Cc1ccc(NC(=O)c2ccc(OC(=O)COc3ccc(Cl)cc3C)cc2)cc1	inconclusive: 3.16 µM [activator, partial curve, poor fit]	
CCCCCOC(=O)NCC(O)c1ccccc1 (configuration not stated)	inconclusive: 1.78 µM [activator, full curve, poor fit]	
CCOc1ccc(-c2cn3ccccc3n2)cc1[N+](=O)[O-]	active: 3.98 µM	
COc1ccccc1N1CCN(c2ccc(-c3ccccc3)nn2)CC1		inconclusive: -67.2% [activator]
COc1ccc(-c2nnc(SCC(=O)N3CCCCC3)o2)c(OC)c1	inconclusive: 15.8 µM [activator, single point]	
CCC(=O)c1ccc(-c2ccccc2)cc1	active: 12.6 µM	
Cc1ccc(NC(=O)c2cc3ccccc3cc2O)cc1	inconclusive: 3.16 µM [activator, partial curve, poor fit]	

Structure (SMILES)	Potency	activation
COc1cc(/C=C/c2ccc3cccc(O)c3n2)cc(Cl)c1OC	inactive	
c1ccc(OCCCCN2CCCCC2)cc1	inactive	
Oc1c(CNc2ccccc2)cc(COCc2ccccc2)c2cccnc12	inactive	
CC(=O)c1sc(NCc2ccc(C)cc2)nc1C	inconclusive: 2.24 µM [activator, full curve, poor fit]	
COc1ccc(-c2cc3ccccc3cn2)cc1	inconclusive: 1 µM [activator, full curve, poor fit]	
Cc1ccc(NC(=O)NCCN2CCN(C(=O)Nc3ccc(C)cc3)CC2)cc1	inactive	
COc1ccc(CNC(=O)c2ccc3oc(C(C)C)nc3c2)cc1	inconclusive: 8.91 µM [activator, partial curve, poor fit]	
N#Cc1ccsc1NC(=O)CSc1nncs1	inconclusive: 1.58 µM [activator, partial curve, poor fit]	
Cc1ccc(NC(=S)c2ccccc2)cc1	active: 1.26 µM	
Cc1ccc(NC(=O)c2cc(C)n(-c3cccc(C)c3)c2C)cc1	inconclusive: 15.8 µM [activator, single point]	
COc1ccccc1/C=C/C(=O)c1cc(Br)ccc1OC(=O)c1ccco1	inactive	
CN=Cc1nc(-c2ccccc2)oc1O	inconclusive: 1.78 µM [activator, full curve, poor fit]	
CCn1c(CNC(=O)c2ccc(OC)cc2)nnc1SCC(=O)Nc1ccc(C)cc1	inactive	
CCOc1ccc(-c2ccc(SCC(=O)NC3CCCCC3)nn2)cc1	inconclusive: 5.62 µM [activator, partial curve, poor fit]	
CCc1ccc(CN(C)CC(O)COc2cccc3ccccc23)cc1 (configuration not stated)	inactive	
O=C(Cc1cccs1)NCc1cccc(C(F)(F)F)c1	inconclusive: 15.8 µM [activator, partial curve, poor fit]	
Cc1nc(NCCc2ccccc2)sc1C(=O)N(C)C	inconclusive: 12.6 µM [activator, partial curve, poor fit]	
COCC(=O)Nc1c(C(=O)Nc2ccc3c(c2)OCCO3)oc2ccccc12	inconclusive: 3.98 µM [activator, full curve, poor fit]	
CCOC(=O)c1sc(N(Cc2ccccc2)C(=O)COC(=O)c2cnccn2)nc1C	inactive	
O=C(c1ccccc1)C(CN1CCCCC1)c1ccccc1 (configuration not stated)	inactive	
O=C(c1cc(-c2cccc(O)c2)on1)N1CCCC1	inconclusive: 2.51 µM [activator, partial curve, poor fit]	
COc1cc(C)ccc1OCCOc1ccccc1Cl	inconclusive: 11.2 µM [activator, partial curve, poor fit]	
C[C@H]1CN([C@@H](C)CO)C(=O)c2cc(-c3cccnc3)cnc2O[C@H]1CN(C)Cc1ccc(Oc2ccccc2)cc1	inactive	
CCCCn1cnc2sc(-c3ccccc3)cc2c1=O	inconclusive: 2.51 µM [activator, full curve, poor fit]	
COCC1CCCCN1C(=O)c1cc(COc2ccc(C)c(C)c2)on1 (configuration not stated)	active: 11.2 µM	
